From PubChem BioAssay AID1508624 (National Center for Advancing Translational Sciences (NCATS), 2021)
In all, about 48,000 compounds went through this assay and about 120 (0.25%) were called active. About 4% were inconclusive and are not listed. The call rests on the fitted dose curve; in most records, active means well fitted activation curve with a large enough effect; inconclusive means small, poorly fitted or top-dose-only effect, or another doubt; inactive means no such curve, though single readings can be large or run the other way. The list shows a part of the results.

Test: Primary qHTS for Identification of Small Molecule Activators of Huntingtin-Antisense Promoter Activity; further: nearly all actives have a fitted effect of over 55% in size
Conditions: HEK293 HTT-AS promoter firefly luciferase reporter (activity 0% = vehicle and -100% = no light), 24 h; series mostly up to 57.5 µM; activity change, positive = activation: at the top concentration
Method in brief: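 HEK293 luciferase promoter-reporter cells (2,500/well) plated 24 h, then compounds added at up to 57.5 uM final for 24 h at 37 °C. Firefly luminescence by Dual-Glo, normalized to vehicle (0%) and zero RLU (-100%).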

Activity change, positive = activation, inactive:
Cc1ccc(Cl)cc1N1CCN(C(=O)C(C)n2ncn3cccc3c2=O)CC1 (stereo not given) -16.7%, CCCCN(CCCC)C(=O)c1cc2c(=O)n3ccccc3nc2s1 -9.12%, CCNC(=O)c1c(NC(=O)c2cc(=O)c3ccc(C)c(C)c3o2)sc2c1CCCC2 0.911%, Cc1cccc(N2CCN(S(=O)(=O)c3ccc(F)c(C(=O)Nc4cccc(Cl)c4C)c3)CC2C)c1 (stereo not given) -19.4%, O=C(NCCSc1c(-c2ccc(Cl)cc2)[nH]c2ccccc12)c1ccc(S(=O)(=O)N2CCOCC2)cc1 -25.7%, COc1ccc(Nc2ncnc3c2cnn3C)c(OC)c1 4.11%, Cc1nn(-c2ccccc2)c2c1cc1c(=O)[nH]c(=O)nc-1n2-c1cccc(C(F)(F)F)c1 -11.7%, Cc1cc(C)c(S(=O)(=O)NCC(c2ccco2)N2CCN(c3ccccc3)CC2)c(C)c1 (stereo not given) -27.4%, Cc1ccc(-n2nc3c(=O)n(CCCC(=O)NCc4ccc(F)cc4)nc(C)c3c2C)cc1 -18.6%, Cc1cc(C(F)(F)F)c2c(N)c(C(=O)Nc3c(Cl)cccc3Cl)sc2n1 -15.5%, O=C(CN1CCN(Cc2ccc(F)cc2)C1=O)NCc1ccccc1 -7.2%, Cc1ccc2c(c1)-c1onc(C(=O)N3CCN(c4cccc(C)c4C)CC3)c1CO2 -8.44%, CC(C)c1ccc(NC(=O)c2cc3c(=O)oc4ccccc4c3s2)cc1 -7.84%, CCOc1ccc(CCNC(=O)c2cc3c(=O)n(C)c4ccccc4c3s2)cc1OCC -14.7%, COc1ccccc1NC(=O)c1sc2cccc(Cl)c2c1Cl 10.6%, CC(=O)OCC(=O)[C@@]1(O)CC[C@H]2[C@@H]3CCC4=CC(=O)C=C[C@]4(C)[C@@H]3[C@@H](O)C[C@@]21C -12.4%, CCCC12CN3CC(C)(CN(C1)C3c1ccc(CC)cc1)C2=O (stereo not given) -12.8%, CCc1ccc(OCC(=O)NCC(c2ccc(Cl)cc2)N2CCOCC2)cc1 (stereo not given) -33.8%, O=C(CC(c1cccs1)N1Cc2ccccc2C1=O)Nc1ccccc1 (stereo not given) -27.2%, CCN1CCN(C(=O)Cn2ncc3c4ccccc4n(Cc4ccccc4F)c3c2=O)CC1 2.96%, O=c1cc2nc(-c3ccccc3)nc(SCc3cccc(Br)c3)n2[nH]1 -33.3%, Cc1cccc(N2CCN(C(c3ccc(F)cc3)c3nnc(-c4ccccc4)o3)CC2)c1C (stereo not given) -4.08%, COc1cccc(N2CCN(C(=O)c3cnc4c(C)cccn4c3=O)CC2)c1 1.47%, COc1ccc(N2CCN(C(CNC(=O)C(=O)NCc3ccc(C)cc3)c3cccnc3)CC2)cc1 (stereo not given) -29.5%, Cc1ccccc1-c1nc(NC(=O)CSc2ncnc3sc4c(c23)CCCC4)ns1 -3.59%, CC(C)Oc1ccc(CNC(=O)C2CCN(C(=O)N3CCOc4ccc(Cl)cc43)CC2)cc1 -34.5%, Cc1cccc(NC(=O)CSc2nc3ccccc3c3nc(CCn4cncc4C)nn23)c1 -7.66%, CNc1nc(Oc2ccc(=O)[nH]n2)nc(N2CCOCC2)n1 -5.68%, Nc1nc(F)nc2c1ncn2[C@@H]1O[C@H](COP(=O)(O)O)[C@@H](O)[C@H]1O 6.44%, COc1ccc(-n2cc(C(=O)Nc3ccccc3C#N)c3ccccc3c2=O)cc1 -7.73%, O=C(c1cccc([N+](=O)[O-])c1)N1CCN(CCc2ccncc2)CC1 -0.873%, CCOc1ccccc1NC(=O)c1nn(-c2ccc(OC)cc2)c(=O)c2c1c1ccccc1n2C -11.4%, COc1cccc(-n2cc(C(=O)Nc3ccccc3C(N)=O)c3ccccc3c2=O)c1 -20.2%, Cc1nc(SCCOc2ccc(Cl)cc2)[nH]c(=O)c1Cc1ccccc1 -7.52%, CCOc1ccc(NC(=O)Cn2c(=O)n(Cc3ccccc3)c(=O)c3c4c(sc32)CN(C(C)=O)CC4)cc1 -19%, CC(C)(C)c1ccc(S(=O)(=O)N2CCC(c3ccncc3)CC2)cc1 -88.4%, Cc1ccc(NC(=O)CN2C(=O)COc3ccc(S(=O)(=O)N4CCOCC4)cc32)c(Cl)c1 -2.26%, COc1ccccc1NC(=O)C1=C(C)Nc2ncnn2C1c1sccc1C (stereo not given) -7.25%, Cc1ccccc1CNC(=O)Cn1cc2c(n1)-c1c(oc(C(=O)N3CCCC3)c1C)CC2 -33.2%, COc1ccc(OC)c(CNC(=O)CCC(=O)N2Cc3ccccc3Oc3ncccc32)c1 -10%, COc1ccc2nc(NC(=O)c3nc(SCc4cccc(C)c4)ncc3Cl)sc2c1 -10.6%, COc1ccc(N2CC(NC(=O)C3CCCC3)CC2=O)cc1 (stereo not given) -6.88%, COC(=O)c1c(NC(=O)c2c(OC)cccc2OC)sc2c1CCCC2 -26.8%, CC1CCCCN1S(=O)(=O)c1ccc2[nH]c(=O)cc(C(=O)NCCc3ccc(Cl)cc3)c2c1 (stereo not given) -17.7%, COc1cccc(NC(=O)CC2Oc3ccccc3NC2=O)c1 (stereo not given) -4.27%, CC(=O)c1cccc(Nc2ncnc3c2cnn3-c2cccc(Cl)c2)c1 24.4%, COc1cccc(NC(=O)c2oc3ccc(S(=O)(=O)N4CCOCC4)cc3c2C)c1 -40.2%, CC(C)OCCCNC(=O)CN1C(=O)CSc2ccc(S(=O)(=O)N3CCOCC3)cc21 -11.2%, CC(=O)Nc1c(C(=O)Nc2ccccc2F)oc2ccccc12 22.4%, CCc1ccc(Nc2nc3c(S(=O)(=O)c4cccc(Cl)c4)nnn3c3ccsc23)cc1 -22.8%, O=C(CSc1n[nH]c(-c2ccccc2)n1)NCCc1ccccc1 -16.2%, NC[C@H]1O[C@H](O[C@H]2[C@@H](O)[C@@H](O[C@H]3O[C@H](CO)[C@@H](O)[C@H](N)[C@@H]3O)[C@H](N)C[C@@H]2N)[C@H](N)C[C@H]1O 1.72%, COc1cc(-c2nc3cnccn3c2Nc2ccc(C(C)C)cc2)ccc1O -42.8%, COc1cccc(CNC(=O)CCS(=O)(=O)c2cc3c4c(c2)CCN4C(=O)CC3)c1 -5.64%, COc1ccccc1-c1ccnc2c(-c3ccc(Br)cc3)c(C)nn12 -4.81%, CCc1ccc(Cn2c(CNS(=O)(=O)c3ccc(Cl)s3)nc3cccnc32)cc1 -27.9%, COc1ccc(CNC(=O)C(C)n2nc(C)c3sc4ccccc4c3c2=O)cc1OC (stereo not given) -24.3%, CCOC(=O)c1cc2c(=O)n3ccccc3nc2n(CC2CCCO2)c1=NC(=O)c1ccccc1F (stereo not given) 10.4%, Cc1nn2c(=O)cc(COC(=O)c3ccc(NC(=O)c4ccc(C(C)(C)C)cc4)cc3)nc2s1 -29.7%, COc1ccc(N(CC(=O)N2CCN(c3ccc(F)cc3)CC2)S(=O)(=O)c2c(C)nn(C)c2C)cc1 -15.6%
